Reference: PubChem BioAssay AID1347120 (National Center for Advancing Translational Sciences (NCATS), 2019)
“And” between values parts separate entries of the source, which are not always exact repeats. Identical values can stand only once. Out of some 390,000 compounds screened, about 930 (0.24%) were called active. This list was built around the results that the source calls inconclusive (neither active nor inactive); the mix of calls is not that of the screen. Calls follow the shape of the dose curve; as a rule, active = well fitted activation curve with a large enough effect; inconclusive = small, poorly fitted or top-dose-only effect; inactive = no such curve, though single readings can be large or run the other way. Potencies of inconclusive entries are doubtful fits and often do not repeat.

test: qHTS for Suppressors of FUS Proteinopathy: Primary screen using FUS-linked yeast assay; also: nearly all actives have a fitted effect of over 55% in size;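 as to growth rescue (activation): plate controls were DMSO vehicle for no effect and reference control for full effect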; conditions: S. cerevisiae FUS-expressing, OD600, 24 h; Potency: growth rescue; growth rescue (activation): at 76.6 µM (top of the series)
Procedure, shortened: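 Quantitative HTS measuring growth restoration of FUS-toxic yeast. Galactose-induced cells (OD 0.005) were exposed 24hr at 30C to compounds at several concentrations, then absorbance at 600 nm was recorded.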
Potency is read from the fitted curve at half-maximal effect; tags tell the direction and shape of the fitted curve.

Structure (SMILES)	growth rescue (activation)	Potency
COc1cccc(/C=N/NC(=O)c2cc3c(OC)ccc(OC)c3[nH]2)c1O	inactive: 5.75%	–
O=C(NC(c1ccc(F)cc1)c1ccc2ccccc2n1)C1CCN(CCOc2ccc(Cl)cc2Cl)CC1 (stereo unspecified)	–	inconclusive: 12.6 µM [activator, partial curve, poor fit]
COc1ccc(CN2C/C(=C/C3=CCCCC3)N(C(=O)OCc3ccccc3)C2=N)c(OC)c1	inactive: 30.3%	–
COC(=O)c1ccc(NC(=O)CSc2nc(=O)n(Cc3ccco3)c3c2CCC3)cc1	–	inconclusive: 25.1 µM [activator, partial curve, poor fit]
CCCN1CCC(NC(=O)Nc2ccccc2C(=O)OC)CC1	inactive: -17.1%	–
COc1cccc(CNc2cccc3cccnc23)c1O	–	inconclusive: 22.4 µM [activator, partial curve, poor fit]
O=C(NCc1ccc2c(c1)OCO2)C(=O)NCC1OCCCN1S(=O)(=O)c1ccccc1 (stereo unspecified)	–	inconclusive: 31.6 µM [activator, single point]
Cc1noc(/C=C/N(C)C)c1S(=O)(=O)N1CCCC(C(=O)NCc2ccc(Cl)cc2)C1 (stereo unspecified)	–	inconclusive: 31.6 µM [activator, single point]
O=C(Nc1ccc(N2CCCCC2)cc1)c1ccc(F)cc1F	inactive: 11.8%	–
CCOC(=O)c1cnn(-c2ccc(OC)cc2)c1C1CCN(C(=O)OC(C)(C)C)CC1	–	inconclusive: 44.7 µM [activator, partial curve, poor fit]
CCCCN(C(=O)c1cccc2c(=O)c(C)c(-c3ccccc3)oc12)c1ccccc1	–	inconclusive: 31.6 µM [activator, single point]
COc1cccc(-c2cnc3c(NC=O)cc(-c4cc(OC)c(OC)c(OC)c4)cn23)c1	–	active: 28.2 µM
CCOc1cc(C)c(S(=O)(=O)N2CCCCC2)cc1C	inactive: -13.1%	–
O=C(CSc1ccc(-c2nc3ccccc3[nH]2)cn1)Nc1ccc(S(=O)(=O)NC2CC2)cc1	–	inconclusive: 31.6 µM [activator, single point]
Cc1ccc(-c2cc(C(=O)N3CCCc4ccccc43)no2)cc1	–	inconclusive: 44.7 µM [activator, single point]
COc1ccc(-c2cc(C(=O)N3CCCC(C(F)(F)F)C3)c3ccccc3n2)cc1OC (stereo unspecified)	–	inconclusive: 50.1 µM [activator, single point]
CC(=O)N1C(C)c2ccccc2C(C)(C)CC12CCCCC2 (stereo unspecified)	–	inconclusive: 11.2 µM [activator, full curve, poor fit]
COc1cc(C(C)=O)ccc1OCC(=O)Nc1ccc(C)c(S(=O)(=O)N2CCCCCC2)c1	–	inconclusive: 28.2 µM [activator, single point]
CC1CCCC(C)N1S(=O)(=O)c1ccc(NC(=O)CCN2C(=O)C3CC=CCC3C2=O)cc1 (stereo unspecified)	–	inconclusive: 11.2 µM [activator, partial curve]
CCCSc1nc2sc3c(c2c(=O)n1-c1ccc(OC)cc1)CCN(C)C3	–	inconclusive: 44.7 µM [activator, partial curve, poor fit]
O=C(Nc1nnc(-c2cccnc2)o1)c1ccccc1Cl	inactive: -16.4%	–

Structure (SMILES)	growth rescue (activation)	Potency
Cc1cc(C)n(-c2cc(N3CCN(C(=O)c4ccc(C(C)(C)C)cc4)CC3)ccc2[N+](=O)[O-])n1	–	inconclusive: 35.5 µM [activator, single point]
CCCCOCCCNC(=O)C[C@@H]1C(=O)N(CCc2ccc(Cl)cc2)C2=CCCCC[C@]21C(=O)OC	inactive: 42.2%	–
O=C(O)c1cc2c(ccc3ccccc32)o1	inactive: -11.8%	–
CCc1c(C)sc(NC(=O)c2cc(-c3ccco3)on2)c1C#N	–	inconclusive: 22.4 µM [activator, single point]
O=C(CNC(=O)c1ccccc1)OCN1C(=O)c2ccccc2C1=O	inactive: -14.8%	–
CC(C)Cn1c(N)c(S(=O)(=O)c2cccs2)c2nc3ccccc3nc21	inactive: -8.27%	–
CC[C@H](C)[C@@H]1NC(=O)[C@@H](CC(C)C)NC(=O)[C@H](C(C)C)NC(=O)[C@H]2CSSC[C@H](NC1=O)C(=O)N2	inactive: -17.1%	–
O=C(CNc1cccc2ccccc12)N/N=C/c1cccc(Oc2ccccc2)c1	–	inconclusive: 28.2 µM [activator, single point]
O=C(Nc1ccc(S(=O)(=O)Nc2nccs2)cc1)c1cc(-c2ccccn2)nc2ccccc12	–	inconclusive: 35.5 µM [activator, single point]
COC(=O)[C@]12C[C@H](CC(=O)N3CCSCC3)C(=O)N(CCc3ccc(OC)c(OC)c3)C1=C[C@H](C(C)C)O[C@@H]2C1CC1	–	inconclusive: 17.8 µM [activator, partial curve, poor fit]
Cc1ccc(S(=O)(=O)Cc2ccc(C(=O)N3CCN(c4cccc(C)c4C)CC3)o2)cc1	–	inconclusive: 31.6 µM [activator, single point] and inconclusive: 35.5 µM [activator, single point]
Cc1ccc(C(NC(=O)Nc2ccccn2)C(Cl)(Cl)Cl)cc1F (stereo unspecified)	–	inconclusive: 11.2 µM [activator, single point]
COc1cccc(-c2sc3ccc(OC)cc3c2-c2ccc(OCCN3CCOCC3)cc2)c1	–	inconclusive: 31.6 µM [activator, single point]
COc1ccc(/C=C/C(=O)c2ccc3c(c2)OCCO3)cc1[N+](=O)[O-]	inactive: 8.2%	–
CCCCCC(=O)N1C[C@@H](O)[C@H](n2cc(-c3ccc(F)cc3)nn2)C[C@@H]1c1ccc(Cl)cc1	–	inconclusive: 28.2 µM [activator, single point]
Cc1ccccc1NC(=O)Cn1c(SCC(=O)Nc2ccc(F)cc2)nc2ccccc21	inactive: -3.81%	–
COc1ccc(/C=N/NC(N)=S)cc1OC(=O)c1ccccc1	–	inconclusive: 39.8 µM [activator, single point]
COC(=O)C1CCN(C(=O)COC(=O)Cc2c[nH]c3ccccc23)CC1	inactive: -21.6%	–
CCOC(=O)[C@H]1[C@H]2COc3cc(OC)ccc3[C@@H]2N2C(=O)c3cc(OC)c(OC)cc3NC(=O)[C@@]12C	–	inconclusive: 50.1 µM [activator, single point]
c1ccc(Oc2nc(NCc3ccco3)nc(NCc3ccco3)n2)cc1	–	inconclusive: 17.8 µM [activator, partial curve, poor fit]
O=C(NCc1ccc(Cl)c(Cl)c1)c1cc(C2CCCCN2C(=O)CCc2ccccc2)on1 (stereo unspecified)	–	inconclusive: 8.91 µM [activator, full curve]

Structure (SMILES)	growth rescue (activation)	Potency
CC(=O)N1CCc2c(sc3c2c(=O)n(-c2ccccc2)c(=O)n3CC(=O)Nc2ccccc2)C1	inactive: 23%	–
Cc1ccc(S(=O)(=O)N2CCC(=O)N(CCOC(=O)Nc3ccc(C)c(C)c3)CC2)cc1	–	inconclusive: 31.6 µM [activator, single point]
CC[C@@H](C)C(NC(=O)OC(C)(C)C)c1cn([C@@H](Cc2ccc(O)cc2)C(=O)N2CCN(C(=O)OC(C)(C)C)CC2)nn1 (stereo partly specified)	–	inconclusive: 17.8 µM [activator, partial curve, poor fit]
Cc1csc(NC(=O)NCC2CCCC(CNC(=O)Nc3nc(C)cs3)C2)n1 (stereo unspecified)	–	inconclusive: 20 µM [activator, partial curve, poor fit]
COc1ccc(N2CCN(c3c(S(=O)(=O)c4ccccc4)cnc4ccc(OC)cc34)CC2)cc1	–	inconclusive: 20 µM [activator, single point]
C=CCn1c(Cc2nc3ccc(Cl)cc3[nH]2)n[nH]c1=S	–	inconclusive: 44.7 µM [activator, single point]
CCC(c1nnnn1-c1c(C)cccc1C)N1CCN(c2ccc(C(F)(F)F)cc2[N+](=O)[O-])CC1 (stereo unspecified)	–	inconclusive: 31.6 µM [activator, single point]
Nc1c(C(=O)Nc2nc3ccccc3s2)sc2nc(-c3cccs3)ccc12	–	inconclusive: 28.2 µM [activator, partial curve, poor fit]
COc1cc(OC)c2c(C)c(Cl)c(=O)oc2c1	inactive: 16.1%	–
CCOC(=O)c1c(C)[nH]c(C(=O)N2CCN(CC)CC2)c1C	–	inconclusive: 0.891 µM [activator, full curve, poor fit]
CN(Cc1ccco1)C(=O)c1ccc2c(c1)N(Cc1ccccc1F)C(=O)c1ccccc1S2	–	inconclusive: 28.2 µM [activator, partial curve, poor fit]
Cc1ccc(C(=O)Nc2cc(S(=O)(=O)N3CCOCC3)ccc2N2CCCC2)cc1	inactive: -4.28%	–
Cc1ccc(OCC(=O)N(Cc2ccccc2)C(C)C)c([N+](=O)[O-])n1	inactive: -7.84%	–
Cc1ccc2[nH]c(-c3cccc(N)c3)cc2c1	–	inconclusive: 8.91 µM [activator, partial curve, poor fit]
CCC1CN(C(=O)N2CCC(C(=O)N3CCN(c4cccc(C)c4C)CC3)CC2)c2ccccc2O1 (stereo unspecified)	–	inconclusive: 14.1 µM [activator, partial curve, poor fit]
Cc1nc2sc(C(c3ccco3)N3CCC(Cc4ccccc4)CC3)c(O)n2n1 (stereo unspecified)	–	inconclusive: 28.2 µM [activator, single point]
CCOc1ncccc1C(=O)OCC(=O)NCCc1ccc(S(N)(=O)=O)cc1	–	inconclusive: 11.2 µM [activator, single point]
COc1ccc(NC(=O)C2CCN(Cc3cnn(-c4ccccc4)c3-n3cccc3)CC2)cc1OC	–	inconclusive: 7.08 µM [activator, single point]
COc1ccccc1CCC(=O)N(Cc1ccccc1)c1c(N)n(Cc2ccccc2)c(=O)[nH]c1=O	–	inconclusive: 31.6 µM [activator, single point]
